According to the supplement of paper PMC4723716:
Whole data set: some 3,600 compounds, median “viability index relative to DMSO control” near 0.81, cut for the lowest 2% near 0.13. This is one part of the list.

Tested on: Plasmodium falciparum NF54 stage V gametocytes
Test: viability index relative to DMSO control (fraction); higher = less gametocyte killing
Settings: 1.25 µM, incubation time: 72 h
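Note: 384-well serum-free SaLSSA: MitoTracker Red CMXRos staining with saponin lysis, high-content imaging, treated-well particle count divided by plate-mean count of DMSO wells.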

SMILES	viability index
CCCOC(=O)C1=C(C)NC2=C(C(=O)CC(c3ccc(Cl)cc3)C2)C1c1ccccc1F (stereo unspecified)	0.624
CCCCCCc1cc2cc(-c3nc4ccccc4[nH]3)c(=Nc3ccccc3C)oc2cc1O	0.728
CCNC(=O)C=Cc1ccc(C(C)(C)C)cc1	0.635
CCc1c(C(C)S(=O)(=O)c2ccc(C)cc2)[nH]c(=O)n1-c1ccc(OC(F)(F)F)cc1 (stereo unspecified)	0.988
CCOC(=O)c1cnc2ccccc2c1Nc1ccc(C(C)=O)cc1	0.698
CC1=C2C(=O)c3ccccc3C2NC(=O)N1 (stereo unspecified)	1.09
O=C1C2C(C(=O)N1c1ccc(Br)cc1)C1C=CC2C12CC2 (stereo unspecified)	0.796
O=c1c2ccccc2nc2n1CCN2Cc1ccc(Cl)cc1	0.623
CC(=O)c1cccc(S(=O)(=O)NCCCNc2nc3cc(C)cc(C)c3cc2C#N)c1	0.656
Cc1cccc(Nc2ccccc2C(=O)OCC(=O)N2CC(=O)Nc3ccccc32)c1C	1
O=C1C2C(C(=O)N1c1ccc(Cl)c(C(F)(F)F)c1)C1(c3ccccc3)C(=O)C2(c2ccccc2)C(c2ccccc2)=C1c1ccccc1 (stereo unspecified)	0.706
CCc1c(C#N)c(N)nc(SCC(=O)c2ccc(C)cc2)c1C#N	0.848
Cc1ccc(Nc2nc(NCc3ccco3)c3ccccc3n2)cc1	0.785
COc1cc(OC)cc(-n2nc(C(=O)NCCCN3CC(C)CC(C)C3)c3ccccc3c2=O)c1 (stereo unspecified)	1
CC(=NO)c1ccc2c(c1)C(C)(C)CCC2(C)C	1.05
N#CCSc1nc2ccccc2c2nc(CCc3c[nH]c4ccccc34)nn12	0.988
OC(CN1CCOCC1)Cn1cnc2c(SCc3ccccc3)ncnc21 (stereo unspecified)	0.759
O=C(Nc1ccc([N+](=O)[O-])cc1Cl)c1cc(Br)ccc1O	0.837
CN(C)S(=O)(=O)c1ccc(C(=O)Nc2nc3c(ccc4ccccc43)s2)cc1	0.665
CCOC(=O)c1cnc2ccc(C(C)C)cc2c1O	0.731
O=C(COC(=O)c1ccccc1O)c1ccc(Br)cc1	0.707
CCOc1ccc(NC(=O)CSc2nncc(=O)[nH]2)cc1	0.779
Cc1cc(C)cc(Nc2cc(C)nc3ncnn23)c1	0.75

SMILES	viability index
CCCCC(=O)NC(c1ccccc1)c1ccc2cccnc2c1O (stereo unspecified)	0.776
CN(C)CCNCc1cc(-c2ccnc3cc(Cl)ccc23)ccc1O	0.762
O=c1[nH]n(CC2COC(c3ccccc3)O2)c(=O)c2ccccc12 (stereo unspecified)	0.885
CN1C2CCC1C(=Cc1ccsc1)C(=O)C2=Cc1ccsc1	0.859
Cc1ccc(C(C(=O)NC2CCCCC2)N(C(=O)c2ccc(-c3ccccc3)[nH]2)c2ccc(C3CCCCC3)cc2)o1 (stereo unspecified)	0.678
CN(C)c1ccc(C=Cc2cccc[n+]2C)cc1	1
CC(Cl)=CC[N+]1(CC#Cc2cccc3ccccc23)CCOCC1	0.556
COc1ccc(NC(=O)C2=C(C)Nc3c(C(=O)Nc4ccc(C)cc4)cnn3C2c2cccc(Cl)c2)cc1 (stereo unspecified)	0.365
CCCCCN(CCCCC)C(O)c1cc2c(c3ccccc13)CCCC2 (stereo unspecified)	1.07
COc1ccc(C2C(C(=O)c3ccc(C)cc3)=C(O)C(=O)N2CCN2CCOCC2)c(OC)c1 (stereo unspecified)	0.988
CC(=O)NC(c1ccc(N(C)C)cc1)c1cc(Cl)c2cccnc2c1O (stereo unspecified)	0.842
CSc1nc(N)nc(SC2C=CCCC2)c1C#N (stereo unspecified)	0.767
Cc1c(C(=O)N2CCN(c3ccc([N+](=O)[O-])cc3)CC2)sc2ncnc(N(C)c3ccccc3)c12	0.855
C#CCN1c2ccccc2Sc2cccnc21	0.834
Cc1ccc(-c2nn(-c3ccccc3)c3[nH]c(=O)c(CNCc4ccccc4)cc23)cc1	0.413
COc1ccc(NC(=O)COc2ccccc2C(C)C)c(OC)c1	0.736
Cc1ccc2nc(-c3ccccc3)cc(C(=O)Nc3ccc(Cl)c(Cl)c3)c2c1	0.902
Cn1nc(C(=O)Nc2ccc(F)c(Cl)c2)c2c1-c1ccccc1S(=O)(=O)C2	1.1
COc1cc2nc(C3CCC3)n(NC(=O)c3cccc(F)c3)c(=O)c2cc1OC	0.87
O=C1N(Cc2cc3ccccc3s2)CC2CN(Cc3ccsc3)CCN12 (stereo unspecified)	0.44
O=C(Nc1ccc(-c2nc3ccc(NC(=O)c4ccc(Br)o4)cc3[nH]2)cc1)c1ccc(Br)o1	1.1
O=C(Nc1ccc(Cl)cc1)Nc1ccc(Br)cn1	0.903
CCC(=O)NCc1nnc(SCc2cccc(C(F)(F)F)c2)n1-c1cccc(OC)c1	0.865

SMILES	viability index
CC(C)CCNCC(O)Cn1c2ccc(Br)cc2c2cc(Br)ccc21 (stereo unspecified)	0.23
CCNc1nc(NC(C)CC)nc(ON=C(C)C)n1 (stereo unspecified)	0.732
COc1nc(NC(=N)N)nc2ccc(C)cc12	0.906
O=C(c1ccco1)N1CCN(c2ccc([N+](=O)[O-])c(NC3CC3)c2)CC1	0.226
COc1ccc(OC)c(C(=O)c2oc3ccccc3c2NC(=O)CCl)c1	1
Cc1ccc(-c2cc(C(=O)OCC(=O)c3cccc([N+](=O)[O-])c3)c3cc(C)ccc3n2)cc1	1.16
CCN(CC)CCN(Cc1cc2ccc(C)cc2[nH]c1=O)C(=S)NC(C)c1ccccc1 (stereo unspecified)	0.903
NCCCNc1ncc(C(=O)NCc2ccccc2)c(NCC2CCCCC2)n1	0.685
C=CCSc1oc(-c2ccco2)nc1[P+](c1ccccc1)(c1ccccc1)c1ccccc1	0.26
Cc1ccc(N=C2S/C(=C\c3ccccc3)C(=O)N2c2ccc(C)cc2)cc1	0.77
Cc1cc(C)c2cc(CN(CCN(C)C)C(=S)NCCCN(C)C)c(=O)[nH]c2c1	1.11
O=C(NCc1ccco1)c1cccc(Cl)c1Cl	0.739
Oc1ccc(-c2ccc3c(c2)OCO3)cc1CNC12CC3CC(CC(C3)C1)C2	0.615
CCOC(=O)C1CCN(C(=O)CN2C(=O)c3ccccc3C2c2c[nH]c3ccccc23)CC1 (stereo unspecified)	0.859
CCOc1ccccc1NC(=O)CN1CCN(C(=O)c2ccco2)CC1	0.61
CCOC(=O)c1cc(-c2ccc(Cl)cc2Cl)[nH]c1N1CCN(c2ccc(OC)cc2)CC1	0.791
CC(=O)N(Cc1ccc(F)cc1)C1=C(NCCc2ccccc2)C(=O)c2ccccc2C1=O	0.0184
CC1=C(C(=O)OC2CCCC2)C(c2ccccc2F)C2=C(CC(c3ccccc3)CC2=O)N1 (stereo unspecified)	1.23
O=C(c1ccccc1)N1CCN(c2ccccc2NC(=O)C(Cl)(Cl)Cl)CC1	1.22
COc1cc(C(=O)ON=C(N)Cc2cccc3ccccc23)cc(OC)c1OC	0.918
CCCCSCC(O)CN1CCCCC1 (stereo unspecified)	0.954
O=C(Nc1ccc(-c2cn3cccnc3n2)cc1)c1ccccc1I	0.829
CCN(CC)CCNc1ncnc2c1[nH]c1ccc(Br)cc12	0.78

SMILES	viability index
CCC(c1nc2ccccc2c(=O)n1-c1cccc(C)c1)N(Cc1ccccc1)C(=O)Nc1c(C(C)C)cccc1C(C)C (stereo unspecified)	0.887
c1cncc(CCNc2nccn3c(-c4ccc5ccccc5c4)cnc23)c1	0.786
Cc1ccc(S(=O)(=O)Nc2ccc(C(=O)NCCC(C)C)cc2)cc1	0.971
CCOC(=O)N1CCc2c(sc(NCc3ccc(C)o3)c2C(=O)Nc2ccc(OC)cc2OC)C1	1.3
O=C(NCc1c(Cl)cccc1Sc1ccc(Cl)cc1)c1ccc2c(c1)CCO2	0.805
CCOc1ccc2nc(Sc3nc(Nc4cccc(C)c4)nc(Nc4cccc(C)c4)n3)sc2c1	1.02
COc1cc(C(=O)Nc2ccc3nc4n(c(=O)c3c2)CCCCC4)cc(OC)c1OC	1.42
CCCOC(=O)C1=C(C)NC2=C(C(=O)CCC2)C1c1cc(Br)c(O)c(OCC)c1 (stereo unspecified)	1.1
COc1ccc(C2Sc3ccccc3N=C3C2=C(O)c2ccccc23)cc1 (stereo unspecified)	0.667
COc1ccc(CN2CCC(C(=O)Nc3ccc(Oc4cccnc4)cc3)CC2)cc1	0.856
OCCNc1nc(Nc2ccc(F)cc2)nc2ccccc12	0.656
Cc1ccc(NC(=O)C2C3C=CC4(O3)C2C(=O)N(Cc2cccnc2)C4C(=O)NC2CCCCC2)cc1 (stereo unspecified)	1
c1ccc(CC[n+]2cc(-c3ccccc3)n3c2CCC3)cc1	0.619
CCOC(=O)CN(C)Cc1ccc2c(NC(=O)c3ccc(C)s3)c(C(=O)OC)sc2n1	0.846
CCC(C)NC(=O)CN(c1cc(OC)ccc1OC)S(C)(=O)=O (stereo unspecified)	0.814
Cc1cc(Nc2ccc(Cl)cc2)nc(NCc2ccccc2)n1	0.498
CCN1/C(=C\C=C2/SC(=S)N(c3ccccc3)C2=O)C(C)(C)c2cc(-c3ccccc3)ccc21	0.983
OCC[n+]1c2ccccc2nc2ccc(N3CCOCC3)cc21	1.2
Cc1nc(C(C)N(C)Cc2c(C(=O)N3CCCCCCC3)nc3sccn23)c(C)s1 (stereo unspecified)	1.1
CCCC(=O)NC(c1ccc(Cl)cc1)c1ccc2cccnc2c1O (stereo unspecified)	0.622
O=C(NCc1n[nH]c(=S)n1-c1ccc(Br)cc1)c1cccc2ccccc12	0.604
CSC1=NC(=Nc2c(C)cccc2C)C2(CCC(C(C)(C)C)CC2)N1c1ccc(Cl)cc1 (stereo unspecified)	0.576
